Measurements reported in PubChem BioAssay AID1508624 (National Center for Advancing Translational Sciences (NCATS), 2021).
Among all 48,000 compounds or so, about 120 (0.25%) were called active. Another 4% or so got no clear call; they are omitted. The call rests on the fitted dose curve; in most records, active means well fitted activation curve with a large enough effect; inconclusive means small, poorly fitted or top-dose-only effect, or another doubt; inactive means no such curve, though single readings can be large or run the other way. The list shows a part of the results.

Test: Primary qHTS for Identification of Small Molecule Activators of Huntingtin-Antisense Promoter Activity; further: nearly all actives have a fitted effect of over 55% in size
Details: HEK293 HTT-AS promoter firefly luciferase reporter, 24 h; series mostly up to 57.5 µM; activity change, positive = activation: at the top concentration
How it was run: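 HEK293 Fluc reporter, 2,500 cells/well, 24 h pre-culture; cpds up to 57.5 uM final, 24 h 37 degrees C; Dual-Glo, 10 min RT; normalized vehicle = 0%, zero RLU = -100%.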

Activity change, positive = activation, inactive:
COCCOC(=O)Cn1nnc2sc(-c3ccccc3)cc2c1=O -0.336%
CCOC(=O)c1ccc(NC(=O)CC2Nc3cc(C)c(C)cc3NC2=O)cc1 (stereo unspecified) -89.9%
COc1ccc(-c2cn3nc(SCC(=O)Nc4ccccc4F)ccc3n2)cc1 -91.8%
COC(=O)c1scc(-c2ccc(C)cc2)c1S(=O)(=O)Nc1ccc(NC(C)=O)cc1 -27.4%
Cc1cc(C)c(NC(=O)COCc2cc(-c3cccs3)on2)c(C)c1 -3.88%
COc1ccc(S(=O)(=O)N(CC(=O)NCCSc2ccccc2)c2ccc(Cl)cc2)cc1 -4.67%
O=C(CSc1nccn1Cc1ccc(F)cc1)NCc1ccccc1 6.02%
Cc1cccc(OCC(=O)Nc2cccc(C(=O)OCc3cc(=O)n4c(C)csc4n3)c2)c1 -23.4%
CCc1cccc(N2C(=O)CSC23C(=O)N(Cc2ccccc2F)c2ccccc23)c1 (stereo unspecified) -40.1%
COc1ccc(-n2ncc(C(=O)NCc3ccc4c(c3)OCO4)c2C2CCN(C(=O)OC(C)(C)C)CC2)cc1 -31.5%
CCN(CC)c1ccc2cc(-c3nc(-c4ccccc4)no3)c(=O)oc2c1 20.9%
Cc1ccc(CNC(=O)c2c(-c3ccc(F)cc3F)noc2C)o1 -13.6%
Cc1cc(C)c(NC(=O)Cn2nnc(C(=O)NCc3cccs3)c2N)c(C)c1 15.3%
COc1ccc(-c2cn3nc(N4CCCC(C(=O)Nc5cc(Cl)ccc5OC)C4)sc3n2)cc1 (stereo unspecified) -0.097%
O=C(NCc1cccc(Cl)c1)C1CCN(c2nn3cc(-c4ccc(F)cc4)nc3s2)CC1 0.483%
COc1cc(NC(=O)Cn2c(=O)n(-c3ccccc3)c(=O)c3c4c(sc32)CCCC4)cc(OC)c1 -6.56%
Cc1ccccc1OCc1ccc(-c2nc(C#N)c(N3CCCCC3)o2)o1 -47.8%
CCCCNC(=O)c1cnn2c(C)c(Cc3c(C)cc(C)cc3C)c(C)nc12 -59.1%
COc1ccc(CC(=O)NCC(c2ccc(N(C)C)cc2)N2CCOCC2)cc1OC (stereo unspecified) -12.9%
CCOC(=O)c1cc2c(=O)n3ccccc3nc2n(Cc2ccco2)c1=NC(=O)c1ccc(OC)cc1 -17.1%
CSc1ccc(CNC(=O)c2ccc3c(c2)N(C)C(=O)C2CCCCN32)cc1 (stereo unspecified) 5.33%
CC(C)COc1ccc(C(=O)Nc2scc(-c3ccc(Br)cc3)c2C(=O)OC(C)C)cc1 -9.6%
Cc1nc2cccnc2n1C1CCN(C(=O)Nc2ccccc2C(F)(F)F)CC1 0.232%
CNS(=O)(=O)c1cn(CC(=O)N2CCN(c3ccc(Cl)cc3)CC2)cc1S(=O)(=O)NC -9.38%
COc1ccc(CCN(C)CCCN2CCc3cc(OC)c(OC)cc3CC2=O)cc1OC -8.98%
CCOc1ccc(-n2nc(CO)c(C(=O)NCC(c3ccccc3)c3ccccc3)n2)cc1 -0.671%
O=C(NCc1ccccc1)c1cccc(N2CCCS2(=O)=O)c1 -7.37%
O=c1ccc2cc(S(=O)(=O)NCc3ccc(Cl)cc3)ccc2[nH]1 -14.1%
c1ccc2[nH]ccc2c1 -5.48%
CCOc1ccccc1NC(=O)Cn1c(=O)n(CCCCC(=O)NCCCOC)c(=O)c2ccccc21 -14.6%
Cc1ccc2[nH]c3c(=O)n(CC(=O)NCCCN4CCN(c5ccc(F)cc5)CC4)ncc3c2c1 0.641%
CCc1ccccc1N(C)C(=O)c1cc2c(Cl)nc3ccc(C)cc3c2s1 -2.19%
CCc1ccc(NC(=O)Cn2nnc(C(=O)NCCc3ccccc3)c2N)cc1 1.52%
O=C(NCc1cccc(F)c1)C1CCN(c2nn3cc(-c4ccc(F)cc4)nc3s2)CC1 31.6%
N#Cc1ccccc1Cn1c(=O)n(-c2ccccc2)c(=O)c2c3c(sc21)CCC3 2.16%
CC1CCN(S(=O)(=O)c2ccc3c(c2)oc(=O)n3CC(=O)N2CCCCC2)CC1 -21%
Cc1ccccc1CNCCSc1nnnn1C -2.8%
Cc1cccc(C)c1NC(=O)c1nc(SC(C)C)ncc1Cl -40%
O=C(Nc1ccc(O)c(-c2nc3ccccc3o2)c1)c1ccc(-c2cccc(Cl)c2)o1 4.67%
COCCCNC(=O)C1CCN(C(=O)c2ccc(-n3ccc4ccccc43)s2)CC1 18%
Cc1cc(C)cc(N(CC(=O)Nc2ccc(C)cc2Cl)S(=O)(=O)c2c(C)[nH]c(=O)[nH]c2=O)c1 4.61% [at 11.5 µM, percent change from vehicle, -100% = no light]
CCCSc1ncc(Cl)c(C(=O)Nc2sc3c(c2C(N)=O)CCCC3)n1 -10.2%
CCN(CC)C(=O)c1sc2c(c1C)c(=O)n(Cc1ccccc1)c(=O)n2CC(=O)Nc1ccc(OC)cc1 -10.5%
O=C(OCC(O)CO)c1ccccc1Nc1ccnc2cc(Cl)ccc12 (stereo unspecified) -17.4%
COC(=O)c1ccc(-n2nnc(-c3nsc(NC(=O)c4ccc(Cl)cc4)n3)c2C)cc1 -10.4%
O=c1c(NCCc2ccc(Cl)cc2)nccn1-c1ccccc1 -5.66%
COc1ccccc1NC(=O)CCNS(=O)(=O)c1ccc2c(c1)CCN2C(=O)C1CC1 -15.6%
COc1ccc(OC)c(CCNC(=O)c2cc3cccc4c3n2CCS4)c1 -14%
Cc1cc2n(n1)CCCN2C(=O)Nc1ccc(C)c(Cl)c1 -3.94%
Cc1ccc(C)c(N2CCN(S(=O)(=O)c3ccc(F)c(C(=O)Nc4ccc(Cl)cc4Cl)c3)CC2)c1 -12.4%
CCN(Cc1ccccc1)C(=O)CCS(=O)(=O)c1cc(Br)cc2c1N(C(=O)C1CC1)CC2 -15.3%
CN(c1ccccc1)S(=O)(=O)c1nnc(NC(=O)c2cccs2)s1 -9.13%
CCOC(=O)c1c(C)oc2ccc(N(C(=O)c3ccncc3)S(=O)(=O)c3ccc(F)cc3)cc12 -34.3%
CC(=O)Nc1ccc(NC(=O)CN2C(=O)CCc3cc(S(=O)(=O)N4CCCCC4)ccc32)cc1 -8.12%
O=C(Cn1cc(SCc2ccc(Cl)cc2)c2ccccc21)N1CCCC1 -6.12%
O=C(Nc1ccc(F)cc1)Nc1nnc(SCC(=O)N2CCCCC2)s1 -12.1%
CC(C(=O)O)c1ccc(-c2ccccc2)c(F)c1 (stereo unspecified) -37.3%
Cc1cccc(CNC(=O)CN2CC(C)Sc3ccccc32)c1 (stereo unspecified) 8.53%
COc1ccc(C)cc1NS(=O)(=O)c1cc(Br)cc2c1N(C(C)=O)C(C)C2 (stereo unspecified) -34%
Cc1c(C(=O)N(Cc2cccc(Cl)c2)Cc2ccco2)oc2ccccc12 -17.8%
Cc1cc(O)c2c(c1)C(=O)c1cccc(O)c1C2=O -6.54%
